# Article PMC12136788
# Some of the results follow.
# T1: UNK ZnF1-3 (human, UniProt Q9C0B0 31-174)
# T1 sequence: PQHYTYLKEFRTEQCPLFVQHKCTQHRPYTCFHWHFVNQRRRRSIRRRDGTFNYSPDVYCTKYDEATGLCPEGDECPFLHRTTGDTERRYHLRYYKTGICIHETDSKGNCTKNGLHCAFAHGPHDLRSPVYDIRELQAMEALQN
# B1: chr1:220276048:220276049:+_ENSG00000067704_ENST00000302637|hu_hu|hu_hu_hu_mus_True|28_88 (ssRNA)
# RNA: GGGAGUUCUACAGUCCGACGAUCGCAAAUUGCCUGGUUGGCGGGAAUCGUCCAAGGCUGGGUGGUCCAAACUAAAACGCUAACAGGGGAUGAGGCAUCUGUAAGAGAUGCCAAUUUCGGAGGAGGUCUCAGGAGGGGGAAUCUCAACAGAGGAUUGAGCAUCA
# B2: 98041578_98045231_405_CDS_ENSMUSG00000018160_ENSMUST00000107545|mouse|control|control (ssRNA)
# RNA: GGGAGUUCUACAGUCCGACGAUCGGCUAUAGAUUCCAAACGAUCAGUCAUUGCUGGCAAAGAUGUUACUUUGAGAGCCUUCUGCAAUGUCUCCAAACAGCUGACCAAAUGCUGAUGCCCUCCAGAACUCAUUACGACCCUCUUCAACAGAGGAUUGAGCAUCA
# B3: chr9:14812383:14812384:-_ENSMUSG00000031934_ENSMUST00000164273|mus_mus|mus_mus_mus_hu_True|1_68 (ssRNA)
# RNA: GGGAGUUCUACAGUCCGACGAUCAUAGCCCAGGUAGAUACACGCUAACAGUAUAAUGAUGAGUGUCACCAGCCGGCAGCUAAUGUACUUGAUGAUUAAAUUAUUAGAAUUUUUCUUUGUCUUCAAGUACUGCUCCACGAUUGGCAACAGAGGAUUGAGCAUCA
# B4: 243778409_243800978_756_CDS_ENSG00000117020_ENST00000366539|human|control|control (ssRNA)
# RNA: GGGAGUUCUACAGUCCGACGAUCAUGUCUAGUGUUCUUUAAUACUCUGCUUUCAGUUAGAGUGUGUGCCACUUCAUCCUUUGCAAUAAUGACUUCUUUCUUCAGAAUCUUCAUAGCAUAGUAUUUUCCACUUGCCUUCUCUCGCAACAGAGGAUUGAGCAUCA
# B5: chr14:66974463:66974464:+_ENSMUSG00000022044_ENSMUST00000074523|mus_hu|mus_mus_mus_hu_False|68_108 (ssRNA)
# RNA: GGGAGUUCUACAGUCCGACGAUCUUGUAGGAUGAUUUAUUCAGGGGAUCGGCCAGGAAGCAGGAGCAGAACAGAGACACCAGCGGGAGCUCCUUCAUCUUCUCUUUGUAGGCAGCAAGGGUCAUGUUUCUGGGAUCUGGUGGCCAACAGAGGAUUGAGCAUCA
# B6: chr11:87793186:87793187:-_ENSMUSG00000020483_ENSMUST00000020775|mus_hu|FALSE|FALSE (ssRNA)
# RNA: GGGAGUUCUACAGUCCGACGAUCCACAGUCUGGGAGGGCAGGGGGAAACACAGAUUUGGACAUUCAUAAAAAAAUAAAACCUAAAAUCAAGCACUCAAUUUUGUGCCCACUGAAGGGUUUGAUAAAGGGAACUCAGUCACCACCAACAGAGGAUUGAGCAUCA
# B7: chr11:31834330:31834331:+_ENSMUSG00000020300_ENSMUST00000109412|mus_hu|FALSE|FALSE (ssRNA)
# RNA: GGGAGUUCUACAGUCCGACGAUCUAAAGUUCAGAGUAAUAGAUAAUCAUUGUUUAUGCCCUGUAAAUUGAAGUGUAACCAAUAAUCUGUAAACACACUUGUCACACAAUCACAAGUAAAUAUUAGUAGAAUAACAAUUUCUUACAACAGAGGAUUGAGCAUCA
# B8: chr18:21005031:21005032:-_ENSMUSG00000033382_ENSMUST00000025177|mus_mus|FALSE|FALSE (ssRNA)
# RNA: GGGAGUUCUACAGUCCGACGAUCAAACUUCCAGAGUAAUGACAAAUCAGACAGCAAAAGCGGAACUUUUAAAGGGUUUCUAAAAGCCACUUCCACAGUAAUUGGCUCUUCUACAACUGCAAGUGGAAACCUGGAGUUAUCGGACAACAGAGGAUUGAGCAUCA
# B9: chr1:145439819:145439820:+_ENSG00000117289_ENST00000369317|hu_hu|motif|central (ssRNA)
# RNA: GGGAGUUCUACAGUCCGACGAUCUUUCUUUGUCUCUUGAGUUGGCUGGCUCGGGCGGUCAAGAAAAGCCUUCACCCAGUAGUCGGCACACCCAUAUUUUCCUUUGAAGGAUGUUCCCAGAGGCCCCUGAGGAAGCUCAAAGCCCAACAGAGGAUUGAGCAUCA
# B10: chr4:17845017:17845018:+_ENSG00000109805_ENST00000514176|hu_mus|hu_hu_hu_mus_False|48_78 (ssRNA)
# RNA: GGGAGUUCUACAGUCCGACGAUCGCUCUCUUAACUUGUAUCUUCAUUAAGGAACUCGCAAGGUUAAAGUUUACUUUUCUGUAGCGCGCGGUUUUGGGCUCGUCUGGGUAAUCUCAUCUUCAUUUCUGAUGGUGGUUCAUGAUCCAACAGAGGAUUGAGCAUCA
# B11: chr4:11091628:11091629:+_ENSMUSG00000028211_ENSMUST00000029865|mus_mus|FALSE|FALSE (ssRNA)
# RNA: GGGAGUUCUACAGUCCGACGAUCUUCUUUCUCACUGAAUUCUGGUUCUUGGCUGGAAGAAGUAGUGACUUCGCCUACAAACAUUUUAUUCAGUCUCUGAAACAUUGUUAAGGCAAGAUUGAGAUUUUGGCUAGAUAUCUUUAUCAACAGAGGAUUGAGCAUCA
# B12: chr1:163115580:163115581:-_ENSG00000143248_ENST00000313961|hu_hu|FALSE|FALSE (ssRNA)
# RNA: GGGAGUUCUACAGUCCGACGAUCUACAGUCACAUAGUUGCUUCACUUUCAAUAUUCUUAGGAAAUAACCAAAUAAAUGAGCUACAAAUAUGAGAAACUGAGAGUGUGUGAAUGAAAGAGAGCAACAGAAGGAGGAAAUACAAGCAACAGAGGAUUGAGCAUCA
# B13: chr2:164332853:164332854:+_ENSMUSG00000017721_ENSMUST00000103101|mus_mus|FALSE|FALSE (ssRNA)
# RNA: GGGAGUUCUACAGUCCGACGAUCAUAGCACACGGCCACCACCGUGCACGUAAGGCAGAUCACAUUGUAGGGCAUGCUGAAGUCCGGGGUGGGCAGGUUCACUAGCAAGGGCUCUGUGUAGAGUCGGACAAAGUAGCUGGAGCCCAACAGAGGAUUGAGCAUCA
# B14: chr4:11166509:11166510:-_ENSMUSG00000040738_ENSMUST00000108319|mus_mus|motif|central (ssRNA)
# RNA: GGGAGUUCUACAGUCCGACGAUCUUGAGAGUUAUUAUCAGAAGAAGGUACAAGAACAUCACACGCUUGACAAUAGCCAGCGGACCGCUUCUCAUCUAUGGUACAAUGAAGAGAUAAUGAACCUAUCUCUGCAAGUAGUUCUUUCAACAGAGGAUUGAGCAUCA
# Molecular target: T1, UNK ZnF1-3
# Assay: nsRBNS (natural sequence RNA bind-n-seq); RBNS binding buffer (assumed for nsRBNS): 25 mM Tris pH 7.5, 150 mM KCl, 3 mM MgCl2, 0.01% Triton X-100, 500 ug/ml BSA, 20 U/ml SUPERase-In, 4 C; UNK is unkempt and MSI1 is Musashi-1; names of the RNAs are library labels; protein concentration not given here; high values mean tight binding
row,Binder,binding signal
1,B1,3.09 enrichment R
2,B2,0.998 enrichment R
3,B3,0.984 enrichment R
4,B4,0.379 enrichment R
5,B5,2.9 enrichment R
6,B6,3.07 enrichment R
7,B7,1.74 enrichment R
8,B8,0.971 enrichment R
9,B9,0.712 enrichment R
10,B10,0.328 enrichment R
11,B11,0.68 enrichment R
12,B12,1.82 enrichment R
13,B13,0.708 enrichment R
14,B14,1.43 enrichment R
